From paper PMC10424213
Results are given in words; binding and its absence hold for the method and conditions named. For some assays here: Binding seen in cells or lysates may run through a third protein. Some entries that bind do so weakly or less than the wild type. For some assays here: Where a sequence is shown, tags or fusion partners need not be part of it.

Experiments:
[1] = molecular target: T1, TolQ with a C-terminal hemagglutinin (HA) tag (Escherichia coli) (UniProt P0ABU9); test: co-IP
T1 sequence: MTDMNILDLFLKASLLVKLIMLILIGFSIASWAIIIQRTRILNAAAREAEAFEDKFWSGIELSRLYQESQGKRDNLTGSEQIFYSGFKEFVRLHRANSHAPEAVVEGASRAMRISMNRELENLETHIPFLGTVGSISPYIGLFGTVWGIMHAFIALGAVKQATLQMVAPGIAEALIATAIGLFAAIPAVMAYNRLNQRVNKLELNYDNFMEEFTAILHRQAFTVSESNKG

[2] = molecular target: T1, TolQ with a C-terminal hemagglutinin (HA) tag (Escherichia coli); test: protease accessibility assay
[3] = molecular target: T2, ExbB, bacterial two-hybrid fusion (Escherichia coli) (UniProt P0ABU7); test: two-hybrid
T2 sequence: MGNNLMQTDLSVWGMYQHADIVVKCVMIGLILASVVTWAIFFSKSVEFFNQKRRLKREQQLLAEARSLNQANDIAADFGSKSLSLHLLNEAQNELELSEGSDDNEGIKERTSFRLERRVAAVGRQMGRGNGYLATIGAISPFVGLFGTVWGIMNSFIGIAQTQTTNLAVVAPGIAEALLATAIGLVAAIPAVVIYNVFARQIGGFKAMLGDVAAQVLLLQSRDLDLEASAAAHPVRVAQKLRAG

[4] = molecular target: T3, TolQ fused to the T25 domain of the adenylate cyclase (Escherichia coli) (UniProt P0ABU9); test: two-hybrid
T3 sequence: T1 sequence

[5] = molecular target: T4, TolR fused to the T25 domain of the adenylate cyclase (Escherichia coli) (UniProt P0ABV6); test: two-hybrid
T4 sequence: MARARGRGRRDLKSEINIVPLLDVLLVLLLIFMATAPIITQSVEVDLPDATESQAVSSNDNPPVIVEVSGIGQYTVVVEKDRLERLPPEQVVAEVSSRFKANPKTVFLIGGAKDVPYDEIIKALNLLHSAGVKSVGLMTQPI

[6] = molecular target: pIII, full length, fused to the T18 or T25 domain of the Bordetella pertussis adenylate cyclase (fd phage) (UniProt P03661); test: two-hybrid
[7] = molecular target: T5, pVI, full length, fused to the T18 or T25 domain of the adenylate cyclase (fd phage) (UniProt P69531); test: two-hybrid
T5 sequence: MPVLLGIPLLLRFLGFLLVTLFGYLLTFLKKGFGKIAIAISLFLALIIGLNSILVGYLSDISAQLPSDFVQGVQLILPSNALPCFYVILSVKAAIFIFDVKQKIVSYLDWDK

[8] = molecular target: pIII-C A382C (pBAD-pIII-C) (fd phage) (UniProt P03661); test: cross-linking
[9] = molecular target: pIII-C F381C (pBAD-pIII-C) (fd phage) (UniProt P03661); test: cross-linking
[10] = molecular target: pIII-C F383C (pBAD-pIII-C) (fd phage) (UniProt P03661); test: cross-linking
[11] = molecular target: TolR2-3 (residues 45-143 of TolR) fused to T18 or T25 (Escherichia coli) (UniProt P0ABV6); test: two-hybrid
[12] = molecular target: pIII-N1 (residues 1-71 of the mature pIII protein) fused to T18 or T25 (fd phage) (UniProt P03661); test: two-hybrid
[13] = molecular target: pIII-N2 (residues 82-222 of pIII) fused to T18 or T25 (fd phage) (UniProt P03661); test: two-hybrid

Substance: native pIII protein, full length, produced in E. coli W3110 (from UniProt P03661 19-424)
- binding [1]: binds
- binding [2]: binds

Substance: pIII, full length, fused to the T18 or T25 domain of the Bordetella pertussis adenylate cyclase (from UniProt P03661 1-424)
- binding [3]: binds
- binding [4]: binds
- binding [5]: binds
- binding [6]: binds
- binding [7]: binds

Substance: pIII-275 (residues 275-406 of pIII) fused to T18 (from UniProt P03661 293-424) (domain or fragment)
- binding [4]: binds
- binding [5]: binds

Substance: pIII-286 (residues 286-406 of pIII) fused to T18 (from UniProt P03661 304-424) (domain or fragment)
- binding [4]: no binding

Substance: pIII-C (residues 256-406 of pIII) fused to the T18 or T25 domain of the adenylate cyclase (from UniProt P03661 274-424) (domain or fragment)
- binding [4]: binds
- binding [5]: binds
- binding [7]: binds

Substance: pIII-C A382C (pBAD-pIII-C) (from UniProt P03661 274-424) (domain or fragment)
- binding [8]: binds

Substance: pIII-C F381C (pBAD-pIII-C) (from UniProt P03661 274-424) (domain or fragment)
- binding [9]: binds

Substance: pIII-C F383C (pBAD-pIII-C) (from UniProt P03661 274-424) (domain or fragment)
- binding [10]: binds

Substance: pIII-C deleted of its TMH (residues 256-378 of pIII) fused to T18 or T25 (from UniProt P03661 274-396) (domain or fragment)
- binding [11]: no binding

Substance: pIII-C-T18 A382L (from UniProt P03661 274-424) (domain or fragment)
- binding [4]: no binding
- binding [5]: binds

Substance: pIII-C-T18 F381G-F383G (from UniProt P03661 274-424) (domain or fragment)
- binding [4]: no binding
- binding [5]: binds

Substance: pIII-N1 (residues 1-71 of the mature pIII protein) fused to T18 or T25 (from UniProt P03661 19-89) (domain or fragment)
- binding [11]: no binding
- binding [12]: no binding
- binding [13]: binds

Substance: pIII-N2 (residues 82-222 of pIII) fused to T18 or T25 (from UniProt P03661 100-240) (domain or fragment)
- binding [11]: no binding
- binding [13]: binds
